{"source": "PubChem BioAssay AID504333", "about": "(National Center for Advancing Translational Sciences (NCATS), 2011)", "note": "The whole screen tested about 360,000 compounds, of which about 16,000 (4.4%) were called active. This list was built around the results that the source calls inconclusive (neither active nor inactive); the mix of calls is not that of the screen. The call rests on the fitted dose curve; in most records, active means well fitted inhibition curve with a large enough effect; inconclusive means small, poorly fitted or top-dose-only effect; inactive means no such curve, though single readings can be large or run the other way. Potencies beside an inconclusive call are fits to weak or partial responses and may not hold up. On the % scale 0 is the no-effect control and ±100 the full control effect; potency means the concentration at half of the fitted maximal effect; tags describe the fitted curve by direction and shape."}
{"molecular_target": "Bromodomain adjacent to zinc finger domain protein 2B (Homo sapiens) (UniProt Q9UIF8)", "sequence (Q9UIF8 whole entry, looked up, the tested form may be a part)": "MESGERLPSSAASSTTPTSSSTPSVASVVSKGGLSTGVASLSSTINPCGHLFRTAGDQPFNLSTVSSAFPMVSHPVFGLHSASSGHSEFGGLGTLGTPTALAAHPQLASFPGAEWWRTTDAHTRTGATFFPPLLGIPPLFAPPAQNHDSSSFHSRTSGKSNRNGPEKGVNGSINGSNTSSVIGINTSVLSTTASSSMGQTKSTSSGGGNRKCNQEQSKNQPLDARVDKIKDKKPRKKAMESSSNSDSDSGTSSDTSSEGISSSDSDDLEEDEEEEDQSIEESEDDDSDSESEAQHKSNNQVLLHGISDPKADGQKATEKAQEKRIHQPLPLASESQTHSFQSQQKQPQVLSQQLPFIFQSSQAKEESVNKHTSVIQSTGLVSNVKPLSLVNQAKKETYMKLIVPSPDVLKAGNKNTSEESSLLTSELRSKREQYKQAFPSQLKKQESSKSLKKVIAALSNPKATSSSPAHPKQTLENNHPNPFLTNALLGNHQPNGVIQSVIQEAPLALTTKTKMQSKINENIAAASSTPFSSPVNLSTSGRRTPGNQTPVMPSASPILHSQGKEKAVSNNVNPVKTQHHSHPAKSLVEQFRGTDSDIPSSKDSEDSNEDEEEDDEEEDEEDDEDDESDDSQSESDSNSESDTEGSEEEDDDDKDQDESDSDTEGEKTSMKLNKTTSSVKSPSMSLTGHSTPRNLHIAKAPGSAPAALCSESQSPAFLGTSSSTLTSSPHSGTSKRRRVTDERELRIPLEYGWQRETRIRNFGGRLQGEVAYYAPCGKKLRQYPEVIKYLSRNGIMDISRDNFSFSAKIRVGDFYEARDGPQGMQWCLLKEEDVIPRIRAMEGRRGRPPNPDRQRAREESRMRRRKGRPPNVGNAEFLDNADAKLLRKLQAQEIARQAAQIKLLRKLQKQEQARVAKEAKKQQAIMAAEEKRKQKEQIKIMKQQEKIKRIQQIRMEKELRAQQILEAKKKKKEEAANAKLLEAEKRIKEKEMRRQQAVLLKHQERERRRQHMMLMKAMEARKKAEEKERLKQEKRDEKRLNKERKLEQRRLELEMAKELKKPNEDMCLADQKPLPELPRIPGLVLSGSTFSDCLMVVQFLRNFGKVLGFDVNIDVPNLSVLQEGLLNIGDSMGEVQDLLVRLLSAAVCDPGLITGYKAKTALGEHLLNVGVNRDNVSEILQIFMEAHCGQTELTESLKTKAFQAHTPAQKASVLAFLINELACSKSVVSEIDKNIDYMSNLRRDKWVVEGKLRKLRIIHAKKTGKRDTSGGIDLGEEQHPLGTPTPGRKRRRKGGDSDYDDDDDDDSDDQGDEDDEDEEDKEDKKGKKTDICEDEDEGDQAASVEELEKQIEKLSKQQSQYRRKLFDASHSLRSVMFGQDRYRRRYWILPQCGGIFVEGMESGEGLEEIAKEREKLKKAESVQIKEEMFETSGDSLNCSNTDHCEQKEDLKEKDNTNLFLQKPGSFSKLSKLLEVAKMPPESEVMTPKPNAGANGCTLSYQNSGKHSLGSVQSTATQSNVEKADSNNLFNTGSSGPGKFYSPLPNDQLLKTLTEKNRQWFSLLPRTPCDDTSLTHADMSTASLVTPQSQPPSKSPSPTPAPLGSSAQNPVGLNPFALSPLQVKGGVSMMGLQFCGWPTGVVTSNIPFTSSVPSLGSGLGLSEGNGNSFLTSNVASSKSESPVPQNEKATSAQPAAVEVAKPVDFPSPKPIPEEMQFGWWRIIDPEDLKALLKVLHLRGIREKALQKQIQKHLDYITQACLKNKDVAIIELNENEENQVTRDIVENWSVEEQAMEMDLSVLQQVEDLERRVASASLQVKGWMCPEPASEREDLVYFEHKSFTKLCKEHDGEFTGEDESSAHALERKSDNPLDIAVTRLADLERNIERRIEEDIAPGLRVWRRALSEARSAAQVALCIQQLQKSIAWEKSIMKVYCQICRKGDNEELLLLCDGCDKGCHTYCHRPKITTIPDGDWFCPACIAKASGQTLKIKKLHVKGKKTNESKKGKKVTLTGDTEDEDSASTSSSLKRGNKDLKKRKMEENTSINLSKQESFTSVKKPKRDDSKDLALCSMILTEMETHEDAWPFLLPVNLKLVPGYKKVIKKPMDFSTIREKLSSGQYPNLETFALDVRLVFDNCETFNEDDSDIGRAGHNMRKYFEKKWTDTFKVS", "experiment": "qHTS Assay for Inhibitors of BAZ2B; further: nearly all actives have a fitted effect of over 60% in size", "settings": "AlphaScreen BAZ2B-H3K14Ac peptide displacement; activity change, negative = inhibition: at 114 µM (top of the series)", "procedure,_shortened": "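Protein-peptide AlphaScreen: BAZ2B 50 nM, b-H3K14Ac 50 nM, 1x PBS pH 7.4 + 0.01% Tween-20. Preincubation 30 min RT; cpd 30 min RT (top 110 uM); beads 20 min RT, light-protected.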"}
{"smiles": "COc1cc(NS(=O)(=O)c2ccc(NC(=S)NC(=O)COc3ccccc3OC)cc2)nc(OC)n1", "Potency": "inconclusive: 89.1 µM [inhibitor, single point]"}
{"smiles": "Cc1cccc(/C=N\\Nc2nnc(-c3ccccc3)c(=O)[nH]2)c1", "activity change, negative = inhibition": "inactive: -37.5%"}
{"smiles": "Cc1ccccc1CNC(=O)c1ccc2c(c1)c(C)c(C)n2C", "Potency": "active: 39.8 µM"}
{"smiles": "CN(C)c1ccc(CNC(=O)c2ccc(Cn3c(SCc4ccccc4)nc4cccnc43)cc2)cc1", "Potency": "inconclusive: 7.08 µM [inhibitor, full curve]"}
{"smiles": "Oc1[nH]c2ccc(Br)cc2c1N=NC(=S)N1CCOCC1", "Potency": "active: 44.7 µM"}
{"smiles": "CCOC(=O)c1c(N)ssc1=S", "Potency": "inconclusive: 56.2 µM [inhibitor, partial curve, poor fit]"}
{"smiles": "CNCCCCOc1ccccc1-c1ccccc1", "Potency": "active: 56.2 µM"}
{"smiles": "CCc1c(C2(O)CCCCC2)[nH]c2ccc(C(F)(F)F)cc12", "Potency": "inconclusive: 89.1 µM [inhibitor, single point]"}
{"smiles": "O=C(NNC(=O)c1ccc(NC(=O)c2ccccc2)cc1)c1ccccc1", "Potency": "inconclusive: 56.2 µM [inhibitor, partial curve]"}
{"smiles": "COc1ccccc1-n1cc2c([N+](=O)[O-])cc([N+](=O)[O-])cc2n1", "Potency": "inconclusive: 8.91 µM [inhibitor, full curve, poor fit]"}
{"smiles": "Cc1ccc(NC2CCCN(C(=O)CSc3ccncc3)C2)cc1C", "note": "(stereo unspecified)", "Potency": "inconclusive: 70.8 µM [inhibitor, partial curve]"}
{"smiles": "Cc1cc(C)cc(NC(=O)Cn2c(-c3cncs3)nc3ccccc32)c1", "Potency": "inconclusive: 8.91 µM [inhibitor, full curve]"}
{"smiles": "CCc1cccc(NC(=O)CCc2nc3sc4c(c3c(=O)[nH]2)CCCC4)c1", "Potency": "active: 70.8 µM"}
{"smiles": "O=C(c1ccc2c3c(cccc13)CC2)C1CCCN(C(=O)c2cccnc2)C1", "note": "(stereo unspecified)", "activity change, negative = inhibition": "inactive: -24.9%"}
{"smiles": "Cc1ccc(C(=O)c2cn(CC(=O)Nc3ccc(C(C)C)cc3)c3nc(C)ccc3c2=O)cc1", "activity change, negative = inhibition": "inactive: 4.31% [at 57.1 µM]"}
{"smiles": "Cc1[nH]c2ccc(C(=O)N3CCN(c4ccccc4Cl)CC3)cc2c1C", "Potency": "active: 22.4 µM"}
{"smiles": "Cc1ccc(NC(=O)CSc2nnc(-c3ccc([N+](=O)[O-])cc3)o2)c(C)c1", "Potency": "inconclusive: 50.1 µM [inhibitor, partial curve]"}
{"smiles": "Nc1c(C(=O)NCc2ccco2)sc2nc3c(cc12)C(=O)CCC3", "Potency": "inconclusive: 39.8 µM [inhibitor, partial curve]"}
{"smiles": "COC(=O)c1ccc(N=NNc2ccccc2)cc1", "Potency": "inconclusive: 50.1 µM [inhibitor, partial curve]"}
{"smiles": "Cc1cccc(NC(=O)Cn2nnc(-c3nc(-c4ccncc4)no3)c2N)c1", "Potency": "inconclusive: 56.2 µM [inhibitor, partial curve]"}
{"smiles": "Cc1ccc(N2CCN(S(=O)(=O)c3c(C)noc3C)CC2C)cc1", "note": "(stereo unspecified)", "activity change, negative = inhibition": "inactive: -19.4%"}
{"smiles": "COc1c(O)cc2oc(-c3ccc(O)c(O)c3)cc(=O)c2c1O", "Potency": "active: 50.1 µM"}
{"smiles": "COc1cccc(-c2csc(NC(=O)Oc3ccccc3)n2)c1", "Potency": "inconclusive: 39.8 µM [inhibitor, full curve, poor fit]"}
{"smiles": "COc1ccc(-c2nc3n(c(=O)c2C#N)CCCS3)cc1", "Potency": "inconclusive: 11.2 µM [inhibitor, single point]"}
{"smiles": "Brc1ccc(-c2ncc3ccccn23)cc1", "Potency": "inconclusive: 70.8 µM [inhibitor, partial curve]"}
{"smiles": "COc1ccc2c(c1)c(=O)oc1c(C)c(OC(C)C(=O)N[C@@H](Cc3c[nH]c4ccc(O)cc34)C(=O)O)ccc12", "note": "(stereo partly specified)", "Potency": "active: 50.1 µM"}
{"smiles": "Cc1ccc(S(=O)(=O)Oc2cccc(/C=N/Nc3ccc(C(=O)O)cc3)c2)cc1", "Potency": "inconclusive: 79.4 µM [inhibitor, single point]"}
{"smiles": "Cc1ccc(C(c2sc3nc(-c4ccco4)nn3c2O)N2CCCC2)cc1", "note": "(stereo unspecified)", "activity change, negative = inhibition": "inactive: -20.8%"}
{"smiles": "CC(=O)Nc1nonc1-c1nnc(SCC(=O)Nc2ccc(C)cc2)n1-c1ccccc1", "Potency": "inconclusive: 79.4 µM [inhibitor, single point]"}
{"smiles": "O=C(N/N=C\\c1cccs1)c1sccc1-n1cccc1", "Potency": "inconclusive: 79.4 µM [inhibitor, partial curve]"}
{"smiles": "CCOC(=O)/C(=N/Nc1ccccc1)N1CCCc2ccccc21", "Potency": "inconclusive: 44.7 µM [inhibitor, partial curve]"}
{"smiles": "COc1ccc(NC(=O)CN2C(=O)CCn3nc(-c4cccn4C)cc32)cc1Cl", "Potency": "inconclusive: 50.1 µM [inhibitor, partial curve]"}
{"smiles": "C=CCn1c(O)c(N=NC(=S)Nc2ccc(OC)c(Cl)c2)c2ccccc21", "Potency": "active: 7.94 µM"}
{"smiles": "CCN(CC(=O)Nc1c(F)cccc1F)C(=O)c1ccc(N2CCOCC2)c([N+](=O)[O-])c1", "Potency": "inconclusive: 79.4 µM [inhibitor, single point]"}
{"smiles": "Cc1ccccc1Nc1nc(N)nc(COC(=O)CCNS(=O)(=O)c2ccccc2)n1", "Potency": "inconclusive: 50.1 µM [inhibitor, single point]"}
{"smiles": "CC(=O)Nc1cc2c(=O)n(Cc3ccccc3)c(C)nc2cc1N1CCOCC1", "Potency": "inconclusive: 89.1 µM [inhibitor, single point]"}
{"smiles": "O=C1c2ccccc2NC(c2ccc(Cl)cc2Cl)N1Cc1ccccc1", "note": "(stereo unspecified)", "activity change, negative = inhibition": "inactive: 12.7%"}
{"smiles": "CC(C)c1nn2c(=O)cc(COC(=O)c3ccc(NC(=O)COc4ccccc4)cc3)nc2s1", "activity change, negative = inhibition": "inactive: -1.55%"}
{"smiles": "COc1cc(CN2CCC(C(=O)NC3CCCC3)CC2)ccc1O", "Potency": "active: 31.6 µM"}
{"smiles": "Cc1ncc(CO)c2c1Oc1nc(-c3ccccc3F)nc(SCC(=O)N(C)c3ccccc3)c1C2", "Potency": "inconclusive: 79.4 µM [inhibitor, single point]"}
{"smiles": "CC1=NN(c2ccccc2)C(=O)/C1=C\\C=C1/N(C)c2ccccc2C1(C)C", "Potency": "active: 10 µM"}
{"smiles": "CCc1cccc(NC(=O)COC(=O)c2cn(CC)c3nc(C)ccc3c2=O)c1", "activity change, negative = inhibition": "inactive: 2.78%"}
{"smiles": "O=[N+]([O-])c1cccc(CN2CCC(Cc3ccccc3)CC2)c1", "Potency": "active: 50.1 µM"}
{"smiles": "COc1ccc(Nc2ccc3c(c2)=NC2(CCCCC2)[N+]=3[O-])cc1", "Potency": "active: 39.8 µM"}
{"smiles": "CC(NC(=O)Cc1ccccc1)C1COc2ccccc2O1", "note": "(stereo unspecified)", "activity change, negative = inhibition": "inactive: -17%"}
{"smiles": "COc1ccc(OC)c(Nc2cc(C)c3ccccc3n2)c1", "Potency": "inconclusive: 50.1 µM [inhibitor, partial curve]"}
